Laboratory results taken from PubChem BioAssay AID686978 (National Center for Advancing Translational Sciences (NCATS), 2013).
The campaign covered roughly 420,000 compounds. About 64,000 (15%) were called active. The shares of active, inactive and inconclusive entries below differ from those in the screen. Calls follow the shape of the dose curve; as a rule, active = well fitted inhibition curve with a large enough effect; inconclusive = small, poorly fitted or top-dose-only effect; inactive = flat fitted curve, though single readings scatter. Potencies of inconclusive entries are left out as doubtful fits.

Assay: qHTS for Inhibitors of human tyrosyl-DNA phosphodiesterase 1 (TDP1): qHTS in cells in absence of CPT; also: nearly all actives have a fitted effect of over 55% in size
Settings: DT40 Tdp1-/- hTDP1 cells, no CPT, ATP luminescence, 48 h; activity change, negative = growth inhibition: at 46.2 µM (top of the series) unless noted
Procedure, shortened: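 Chicken DT40 Tdp1-/- cells stably complemented with human TDP1 were seeded at 400 cells/well with DMSO in place of 20 nM camptothecin. After compound pinning, cells grew at least 48 hr at 37 °C; viability read by CellTiter-Glo luminescence.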
% is scaled to controls: 0 for no effect and ±100 for the full control effect; potency is read from the fitted curve at half-maximal effect; tags tell the direction and shape of the fitted curve.

Compound | activity change, negative = growth inhibition | Potency
CCc1ccc(CNC(=O)c2ccc(OC3CCN(C(C)=O)CC3)c(OC)c2)nc1 | inactive: -0.435% | –
Cc1ccc(CN2CCC[C@]3(N[C@H](c4ccccc4)[C@@H]4C(=O)N(C)C(=O)[C@@H]43)C2=O)cc1 | inactive: -8.15% | –
COc1ccccc1NC(=O)C(=O)NCCC1CCCCN1S(=O)(=O)c1ccccc1 (stereo not drawn) | – | inconclusive [inhibitor, single point]
CCOC(=O)c1c(NC(=O)CN2CCN(C(=O)c3ccco3)CC2)sc2c1CCCC2 | inactive: -0.599% | –
COc1cccc(OCc2nc3ccccc3n2Cc2ccccc2)c1 | – | active: 18.4 µM
COc1cccc(CNC(=O)C(=O)NCC(c2cccs2)S(=O)(=O)c2cccs2)c1 (stereo not drawn) | – | active: 20.6 µM
CC1CC(C)CN(C(=O)c2ccc3c(c2NCCO)C(=O)c2ccccc2C3=O)C1 (stereo not drawn) | – | active: 23.1 µM
COc1ccc(Nc2cc(C(=O)NCCCN(C)Cc3ccccc3)c3ccccc3n2)cc1OC | – | active: 20.6 µM
FC(F)(F)c1cnc(N/N=C/c2ccncc2)c(Cl)c1 | – | inconclusive [inhibitor, single point]
CCC(CC)NC(=O)CCCSc1nc2ccccc2[nH]1 | – | inconclusive [inhibitor, partial curve]
CCOc1ccc(CNc2cccc(SC)c2)cc1 | – | inconclusive [inhibitor, single point]
CCCCCOc1ccc(/C=C/c2c([N+](=O)[O-])c(=O)n(C)c(=O)n2C)cc1 | – | active: 20.6 µM
Cc1cc(C)cc(NC(=O)N(CCC#N)Cc2cccs2)c1 | inactive: -28.2% | –
Cc1ccc(-c2nn(-c3ccccc3)cc2/C=N/NC(=O)c2ccc3c(c2)OCO3)cc1 | – | inconclusive [inhibitor, single point]
COc1cccc(-c2nc(N3CCN(Cc4ccccc4)CC3)c3ccccc3n2)c1O | – | active: 16.4 µM
Cc1c(C(=O)NCC2COc3ccccc3O2)oc2ccc(S(=O)(=O)N(C)C3CCCCC3)cc12 (stereo not drawn) | – | active: 14.6 µM
O=C(Cc1ccccc1)NCc1cccnc1 | inactive: -19.4% | –
CCOc1ccc(S(=O)(=O)NCCC(=O)N2CCCCCCC2)cc1 | – | inconclusive [inhibitor, partial curve]
COC(=O)c1ccccc1NC(=S)N1CCN(c2ccccc2)CC1 | inactive: 0.16% | –
Cc1c(CN(C)C(=O)/C=C/c2ccc([N+](=O)[O-])cc2)cnn1C | – | inconclusive [inhibitor, partial curve, poor fit]
COC(=O)c1ccc(NC(=O)c2cc3cc(C)ccc3n2C)cc1 | – | inconclusive [inhibitor, partial curve]
Cc1ccc(N2CC(C(=O)Nc3nnc(C(C)C)s3)CC2=O)cc1 (stereo not drawn) | inactive: -13.9% | –
CC(C)c1ccc(/C=C2\NC(=S)N(Cc3cccnc3)C2=O)cc1 | – | inconclusive [inhibitor, partial curve]
COc1ccc(S(=O)(=O)N2CCC(C(=O)Nc3ccc(Oc4ccccc4)cc3)CC2)cc1OC | – | inconclusive [inhibitor, single point]
O=C(NC(=S)Nc1ccccc1)c1cncc(C#Cc2ccccc2)c1 | inactive: -4.88% | –

Compound | activity change, negative = growth inhibition | Potency
O=C(N/N=C/c1cccc([N+](=O)[O-])c1O)C(O)(c1ccccc1)c1ccccc1 | – | active: 25.9 µM
Nc1ccc(S(=O)(=O)c2ccc(N)cc2)cc1 | – | inconclusive [inhibitor, single point]
CNc1cccc(-c2cc(OC)ccc2OC)n1 | – | inconclusive [inhibitor, single point]
CCC1Oc2ccc(C)cc2N(CC(=O)NCCC2=CCCCC2)C1=O (stereo not drawn) | – | inconclusive [inhibitor, partial curve]
CCCCSCCCNC(=O)c1cn(CC)c2ccc(S(=O)(=O)N3CCOCC3)cc2c1=O | – | inconclusive [inhibitor, single point]
CC(SC1=NCCN1S(=O)(=O)c1ccc(F)cc1)c1ccccc1 (stereo not drawn) | – | inconclusive [inhibitor, single point]
Cc1ccc(S(=O)(=O)N(Cc2ccc(Cl)cc2)c2ccccc2C(=O)NCc2cccnc2)cc1 | – | active: 23.1 µM
O=C(CN1CCOCC1)NN=Cc1ccc([N+](=O)[O-])o1 | – | inconclusive [inhibitor, single point]
Nc1ccc(N=Nc2ccccc2)c2ccccc12 | inactive: 2.6% | –
N#C/C(=C\c1ccccc1)C(=O)N(c1ccccn1)C1CCCCC1 | – | active: 18.4 µM
CCCc1nc2ccccc2c(C(=O)OCC(=O)NC2CC2)c1CC | – | inconclusive [inhibitor, single point]
CCOc1ccc(-n2cc(-c3ccccc3)c3c(=O)[nH]cnc32)cc1 | – | inconclusive [inhibitor, single point]
C[C@@H]1CN([C@@H](C)CO)C(=O)c2cc(-c3ccccc3F)cnc2O[C@H]1CN(C)Cc1cccc(F)c1 | – | active: 23.1 µM
Nc1c2c(nc3ccc(Br)cc13)N(c1ccccc1)CC2 | – | inconclusive [inhibitor, single point]
COCCNC(=O)CN1C(=O)NC(c2ccccc2)(c2ccccc2)C1=O | inactive: 10.3% | –
COc1cccc(C(=O)Nc2ccc3c(c2)C(=O)NC3=O)c1 | – | inconclusive [inhibitor, single point]
COc1cc(NC(=O)Nc2nnc(N3CCCCC3)s2)cc(OC)c1 | – | inconclusive [inhibitor, single point]
Cc1cccc(NC(c2cccc(Cl)c2)c2ccc3cccnc3c2O)n1 (stereo not drawn) | – | active: 5.17 µM
O=c1cc(-c2ccccc2Cl)oc2c(NS(=O)(=O)c3ccccc3OC(F)(F)F)ccc(O)c12 | – | inconclusive [inhibitor, single point]
O=C(C1CC1)N1CCc2cc(Br)c(S(=O)(=O)N3CCCCCC3)cc21 | – | inconclusive [inhibitor, single point]
CCOC(=O)c1sc(NC(=O)Nc2cccc(Cl)c2)cc1C | – | active: 9.2 µM
CNCCCC1Sc2ccccc2Oc2ccccc21 (stereo not drawn) | – | active: 14.6 µM
CCOC(=O)Cn1c(=O)c(C#N)cn(C(C)C)c1=O | inactive: 5.46% | –
COc1cccc(C(=O)Nc2ccc(F)cc2F)c1 | inactive: -14.9% | –
O=C(CSc1n[nH]c(=O)n1C1CC1)c1ccc(F)cc1 | inactive: -19.2% | –

Compound | activity change, negative = growth inhibition | Potency
COc1ccccc1OCCNC(=O)C1CC(=O)N(c2cccc(SC)c2)C1 (stereo not drawn) | inconclusive: -36.1% [inhibitor] | –
CCCn1c2ccccc2c2cnn(CC(=O)Nc3ccccc3OC)c(=O)c21 | – | active: 14.6 µM
CCN(CC)c1ccc(C2CC(=O)Nc3cc(OC)c(OC)cc32)cc1 (stereo not drawn) | – | inconclusive [inhibitor, partial curve, poor fit]
COc1cccc(CNC(=O)[C@@H]2CCCN2C(=O)[C@@H]2CCCN2C(=O)c2c(F)cccc2F)c1 | inactive: -16.4% | –
O=C(CN1CCOCC1)Nc1nc(-c2ccccc2)cs1 | – | inconclusive [inhibitor, single point]
CCOC(=O)C1(Cc2ccc(Cl)cc2)CCN(C(=O)CCc2ccncc2)CC1 | – | active: 13 µM
Cn1c(=O)c2c(ncn2CC(=O)OCCCC(=O)c2ccc(Br)cc2)n(C)c1=O | – | active: 6.51 µM
Cc1ccc2c(O)c(C)c(=O)[nH]c2n1 | inactive: -18.8% | –
O=c1c2[nH]c3ccccc3c2nc(SCc2ccccc2F)n1-c1ccc(F)cc1 | – | inconclusive [inhibitor, single point]
C=CCOC(=O)C1=C[C@@H](c2ccc(Br)cc2)[C@H](CCCO)[C@@H](OCC)O1 | – | inconclusive [inhibitor, single point]
CCCCc1ccc(NC(=O)CSc2nc(=O)n(CCN(CC)CC)c3c2CCC3)cc1 | – | inconclusive [inhibitor, single point]
CC1CCCC(C)N1C(=O)CN1C(=O)c2ccccc2S1(=O)=O (stereo not drawn) | inactive: 1.29% | –
Cc1ccc2c(CC(=O)Nc3ccc(S(=O)(=O)N4CCC(C)CC4)cc3)coc2c1 | – | inconclusive [inhibitor, single point]
CC(C)(C)c1ccc(-n2ncc3c2CCCC3NC(=O)CCN2CCCO2)cc1 (stereo not drawn) | – | inconclusive [inhibitor, single point]
CCN1CCN(Cc2c3ccccc3cc3ccccc23)CC1 | – | inconclusive [inhibitor, single point]
COC(=O)c1cc(S(=O)(=O)NCC2CCN(Cc3cccc(Cl)c3)CC2)c[nH]1 | – | inconclusive [inhibitor, single point]
Cc1nn(-c2ccccc2)c2c1N(CCCC(=O)NCc1ccc(OC(C)C)cc1)C(=O)CS2 | – | active: 7.31 µM
CC1CCc2nc3ccc(S(=O)(=O)N4CCC(C(=O)NCc5ccccc5Cl)CC4)cc3c(C(=O)O)c2C1 (stereo not drawn) | – | inconclusive [inhibitor, partial curve, poor fit]
COc1ccc2[nH]c(C(O)C(O)c3nc4c(OC)c(OC)ccc4[nH]3)nc2c1OC (stereo not drawn) | – | active: 0.282 µM
COc1ccc(C)cc1N=Nc1ccc(O)c2ncccc12 | – | active: 2.59 µM
COc1cc(OC)cc(-c2cc3nc4c(c(N5CCN(c6ncccn6)CC5)n3n2)CCCC4)c1 | – | active: 23.1 µM
CC(=O)Nc1ccc(N2C(C(C)=O)=NN(c3ccccc3)C2c2cccs2)cc1 (stereo not drawn) | – | inconclusive [inhibitor, partial curve]
Cc1ccc(CNC(=O)c2ccc3oc(=O)n(Cc4ccccc4)c3c2)cc1 | – | inconclusive [inhibitor, single point]
